Reference: the supplement of paper PMC11417369
± gives the standard deviation of the averaged measurements. Some of the results follow.

Tested on: PfAP2-G AP2 domain (GST-tagged)
Assay: gcPBM binding intensity (ln(normalized median fluorescence intensity)); higher = stronger DNA binding
Method in brief: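 Each value is the highest Masliner-normalised natural-log median intensity across replicate spots of either orientation of a probe. The probes were primer-extended double-stranded 36-bp intergenic genomic sequences on an Agilent 4 × 180k array, alongside negative controls, exposed for 1 h to GST-tagged P. falciparum DNA-binding domains expressed in E. coli. Bound protein was picked up with Alexa488 anti-GST antibody and scanned at 488 nm.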

Sequence | gcPBM binding intensity (ln)
TTAAAATTTTTTTTTTTTTTTTTTTTTTTTTTTTTC [CACACA_negctrl_site957] | 9.41 ± 0.19
ATATTTATAACTTGTACACACAAATATGCATATATA [CACACA_site7583] | 11.4 ± 0.74
TTGTTAAAATTATTAAGTTAAATATCGATTTGTAAA [XGTACX_negctrl_site429] | 9.52 ± 0.16
TATAAGTTTATATATACACACATATATATATATATA [CACACA_site3274] | 10.3 ± 0.81
AAAATAAAAAGAAAAAATAAAAAGAAAAAATAAAAA [CACACA_negctrl_site120] | 9.34 ± 0.26
TTATATAATCCTTTCAAACACACAAAATATAATTAA [CACACA_site1830] | 9.98 ± 0.11
AAAAAAAATATAAGTGGTACTCACATAAAGACATAT [XGTACX_site3709] | 11.3 ± 0.84
AAATAAAATACATATAAACACACATATAAACCAACA [CACACA_site8789] | 10.2 ± 0.15
TTTTTAGTTCATTAAACACACAAAAAAAAAAATAAA [CACACA_site6035] | 9.97 ± 0.29
TTTTTTATTCTTTTTGCACACAGGAAATTTACAGAT [CACACA_site1090] | 10.3 ± 0.35
TAATACTTTTAATCTACACACGCTGAGACATGCTTT [CACACA_site1484] | 10.2 ± 0.16
AGTGAAAAAAAATTTACACACATAAAATATAAACGA [CACACA_site3724] | 10.005 ± 0.007
GAATGCATGTAAATATGTACATATATTTAAAAATTT [XGTACX_site6032] | 11.3 ± 0.89
TGTTAAAAGGTTAAATTAAAATAACCTCCGGAAATT [GTGCAC_negctrl_site236] | 9.735 ± 0.049
ACATATAAATTGTGTACACATATATATATATTTTTT [CACACA_site5946] | 11.8 ± 1
ATAAATATATATTTACGTACATATTATATATATATA [XGTACX_site6172] | 11.4 ± 0.79
AAAAAAATTTCACATTGTACTTTAATAATATACTAC [XGTACX_site7264] | 11.2 ± 0.8
TTCATAATAAAAAGGTGTACATATATATATATATAT [XGTACX_site2829] | 11.5 ± 0.92
AAGCATTTAATGTTTTATATAACATGTATTTTTTAT [CACACA_negctrl_site673] | 9.86 ± 0.071

Sequence | gcPBM binding intensity (ln)
GTTTTGTACATATTCTCACACATATAAAAATACCCA [CACACA_site4446] | 11.2 ± 0.83
TGTTCTATGATTTGTACACACTTTTTTTTAAAATGC [CACACA_site5558] | 11.4 ± 0.88
TATATATACATATACACACACACACCGATATATATA [CACACA_site8706] | 10.1 ± 0.26
TTTATATGTATACAAACATATAAATATAAATGTATT [TGCATGCA_negctrl_site346] | 9.675 ± 0.078
TAAATTCTTTATAATCGTACATAAATAGAAAAATAA [XGTACX_site601] | 11.2 ± 0.97
TAAAAGAAATAATATACACACATATATAAAAATAAA [CACACA_site1329] | 9.87 ± 0.085
TAAAATGAATATAGGTGTACTTAAAAAAAAGTAAAA [XGTACX_site4613] | 11.6 ± 0.86
TTCAAATAATTTAAATGTACGTTGCTTTATTAAAAG [XGTACX_site3674] | 11.1 ± 0.69
CATGTATACTATAATACACACTATAAAATATACACC [CACACA_site7121] | 10.3 ± 0.16
TATCGAGCCATTTTTACATGCAATTATACATAATTT [TGCATGCA_site987] | 9.87 ± 0.057
AAAACATGTTCAACATGTACACAACAGGATGAATAT [XGTACX_site506] | 11.2 ± 0.64
ATAAATAATAAAAAATGTACACATATAAATATAAAG [XGTACX_site727] | 11.4 ± 0.64
ATGATGAAAATAGAAATACACACTAAAAAATAAAAT [CACACA_site1136] | 9.97 ± 0.042
TTTTACTAAATATATACACACATTATACATATATAT [CACACA_site9081] | 10.2 ± 0.12
CTTACTTACTTACTCACACACATATACAAAGAAAAA [CACACA_site3347] | 10.4 ± 0.3
AAATATATGTTATATGTGCACTTTTTTTTTTTTTTT [GTGCAC_site9667] | 10.7 ± 0.47
TATATAACCGAGTGCACACACAAAAAAAAAGTGAAC [CACACA_site6806] | 10.7 ± 0.55
AGGAAACAAGAAATGAAGAATCATGTAGAAGGCCCA [GTGCAC_negctrl_site187] | 9.68 ± 0.099
TATTAAATATTGTATACATGCAAATACTAGAAAATT [TGCATGCA_site370] | 10.17 ± 0.085

Sequence | gcPBM binding intensity (ln)
AATAATATAAATATTACACACTAATTGTATTATAGA [CACACA_site6347] | 9.95 ± 0.13
ATGATGTGCTTTAAAAGTACTTAAGTTATATTCTTT [XGTACX_site7127] | 11 ± 0.64
AAAATTAAAATTTTCACACAGATATATTTACAATTT [CACACA_site5692] | 9.78 ± 0.014
ATATTACGCACAAAAAAAAAAAAAAAAAAAAAAAAA [CACACA_negctrl_site941] | 10.2 ± 0.64
AATTACAAATATTCATGTACATATTTATAAATACAT [XGTACX_site5430] | 11.2 ± 0.73
ATATATATATATATGTGTACATATATTAAGATATAT [XGTACX_site1065] | 11.4 ± 0.94
ATATTATAGAAATATACACACATTGTTTTATAGCAT [CACACA_site7177] | 9.79 ± 0.16
TATGTTATATAATATTGTACACAAAATGGTTTCTAT [XGTACX_site7686] | 11.5 ± 1
TAAATTAAAAAAAATACACACACACCGACACATATA [CACACA_site9084] | 10.4 ± 0.28
TTCGTAACTGATTCAACACACAAAAGGGGGAAAATT [CACACA_site1754] | 10.9 ± 0.59
AAAAAGAAGAATAATACACACAAATTACTTTATATA [CACACA_site6984] | 9.785 ± 0.064
CATAAAAATATTAATAAACACACAATCAGATATTGA [CACACA_site9032] | 9.825 ± 0.049
AAATATATATAAACAAGTACATATTTAAAAAAAGGA [XGTACX_site2631] | 11.3 ± 0.74
AGGTATGTCTATAAATGTACATATGAGTTCAATTTC [XGTACX_site2244] | 11 ± 0.49
CACAGTGATATAAAAACACACATGAATTCTAATTTC [CACACA_site6884] | 9.75 ± 0.16
TAAAGTTATGCAATAACACACATATACAATACATAT [CACACA_site6698] | 9.98 ± 0.057
AATATTTATATAAATGCATGCTGATACAACAGTCTT [TGCATGCA_site21] | 10.1
ATATATATGAAACACACACACAAAAAAAAAAAAAAA [CACACA_site3647] | 9.8 ± 0.47
